Measurements published in the supplement of paper PMC9446081.
Out of some 39,000 compounds screened, about 220 (0.56%) showed activity. The list shows a part of the results.

Tested on: Escherichia coli K-12 BW25113
Test: relative growth (OD600 normalised to plate interquartile mean) (fraction); higher = less growth inhibition, active = 0.2 or less
Details: 50 µM; LB; incubation time: overnight (16-24 h)
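Note: static incubation at 37 °C against the wild-type strain, values averaged over two biological replicates.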

Which relative growth does the source give for `CCN1CCN(C(=O)CN2C(=O)c3ccccc3S2(=O)=O)CC1` here?
Its relative growth is inactive: 0.989.

`CC(C)NC(=O)Nc1ccc2c(c1)CC(=O)N([C@H](C)CO)C[C@@H](C)[C@@H](CN(C)C(=O)NC1CCCCC1)O2` was tested. Which relative growth did it give?
Its relative growth is inactive: 0.953.

For `CCC(=O)N1CCC[C@@H]1C(=O)O`, which relative growth is on record?
The relative growth was inactive: 1.01.

For `CC1c2cccc(O)c2C(=O)C2=C(O)C3(O)C(=O)C(C(N)=O)=C(O)C(N(C)C)C3C(O)C21.Cl` (stereo unspecified), which relative growth is on record?
Its relative growth is active: 0.0595.

`C[C@H](CO)N1C[C@H](C)[C@H](CN(C)C(=O)NC2CCCC2)Oc2cc(-c3cccnc3)ccc2S1(=O)=O` was tested. Which relative growth did it give?
Its relative growth is inactive: 0.993.

Which relative growth does the source give for `COc1ccccc1CNC(=O)C[C@H]1C[C@H]2c3cc(NC(=O)C4CCOCC4)ccc3O[C@H]2[C@@H](CO)O1` here?
The relative growth was inactive: 1.

For `C[C@H]1CN([C@@H](C)CO)C(=O)Cc2cc(NC(=O)Nc3cccc4ccccc34)ccc2O[C@H]1CN(C)Cc1ccc(C(=O)Nc2ccccc2N)cc1`, which relative growth is on record?
Its relative growth is inactive: 1.03.

Which relative growth does the source give for `C[C@H]1CN([C@@H](C)CO)C(=O)c2cc(NC(=O)Cn3cnnn3)ccc2O[C@@H]1CN(C)C(=O)Nc1ccc(F)cc1` here?
Its relative growth is inactive: 1.04.

With `COc1ccc(CN(C)C[C@@H]2OCCCC[C@@H](C)Oc3ccc(NC(=O)NC(C)C)cc3C(=O)N([C@@H](C)CO)C[C@H]2C)cc1` as the compound, how does the relative growth read?
The relative growth was inactive: 0.994.

With `C[C@@H]1CN([C@@H](C)CO)C(=O)Cc2cc(NC(=O)Cc3ccccc3)ccc2O[C@H]1CN(C)S(=O)(=O)c1ccc(F)cc1` as the compound, how does the relative growth read?
The relative growth was inactive: 1.01.

With `Cc1noc(C)c1NC(=O)N(C)C[C@H]1OCCCC[C@@H](C)Oc2ccc(NS(=O)(=O)c3cccs3)cc2C(=O)N([C@@H](C)CO)C[C@H]1C` as the compound, how does the relative growth read?
Its relative growth is inactive: 1.

How did the relative growth turn out when `CC(=O)NCCOc1ccc(C(=O)O)cc1` was run?
The relative growth was inactive: 0.924.

How did the relative growth turn out when `COc1ccc(S(=O)(=O)N(C)C[C@@H]2Oc3c(NC(=O)NC(C)C)cccc3C(=O)N([C@@H](C)CO)C[C@H]2C)cc1` was run?
The relative growth was inactive: 0.992.

`C[C@H]1CN([C@@H](C)CO)S(=O)(=O)c2ccc(C#CCN(C)C)cc2O[C@@H]1CN(C)C(=O)c1ccccc1F` was tested. Which relative growth did it give?
Its relative growth is inactive: 0.996.

With `C[C@H](CO)N1C[C@H](C)[C@@H](CN(C)C(=O)Nc2ccc(F)cc2)Oc2ccc(NC(=O)CCCCCC(=O)Nc3ccccc3N)cc2C1=O` as the compound, how does the relative growth read?
Its relative growth is inactive: 0.985.

With `N#CC1(C#N)[C@H](c2ccccc2)[C@@H]1C(N)=O` as the compound, how does the relative growth read?
The relative growth was inactive: 0.986.

How did the relative growth turn out when `C[C@@H]1CCCCO[C@@H](CN(C)Cc2ccccc2)[C@H](C)CN([C@H](C)CO)C(=O)c2cc(NS(=O)(=O)c3ccc(Cl)cc3)ccc2O1` was run?
The relative growth was inactive: 1.03.

`COc1ccc(NC(=O)N(C)C[C@H]2Oc3ccc(NC(=O)Nc4cccc5ccccc45)cc3CC(=O)N([C@@H](C)CO)C[C@H]2C)cc1` was tested. Which relative growth did it give?
Its relative growth is inactive: 0.973.

For `C[C@@H]1CCCCO[C@H](CN(C)C(=O)c2ccncc2)[C@H](C)CN([C@@H](C)CO)C(=O)c2cc(NS(=O)(=O)c3cn(C)cn3)ccc2O1`, which relative growth is on record?
Its relative growth is inactive: 1.

`COCC(=O)Nc1ccc2c(c1)C(=O)N(C)C[C@H](OC)[C@@H](C)CN(C(=O)Cc1cccnc1)[C@@H](C)CO2` was tested. Which relative growth did it give?
The relative growth was inactive: 0.984.

Which relative growth does the source give for `C[C@@H]1CCCCO[C@H](CN(C)S(=O)(=O)c2ccc(F)cc2)[C@@H](C)CN([C@@H](C)CO)C(=O)c2cc(NC(=O)CCC(F)(F)F)ccc2O1` here?
The relative growth was inactive: 1.

For `C[C@H]1CC/C=C\[C@H]2O[C@@]34C=CCN(CCN5CCOCC5)C(=O)[C@H]3N(CCCO)C(=O)[C@@H]4[C@@H]2C(=O)O1`, which relative growth is on record?
The relative growth was inactive: 0.925.

How did the relative growth turn out when `O=C(CN1CCOCC1)N[C@H]1CC[C@@H](CCn2cc(C3CCCC3)nn2)O[C@@H]1CO` was run?
Its relative growth is inactive: 0.998.

With `C[C@@H]1CN([C@@H](C)CO)C(=O)c2cccc(NC(=O)C3CC3)c2O[C@@H]1CN(C)S(=O)(=O)c1cccs1` as the compound, how does the relative growth read?
The relative growth was inactive: 1.01.

How did the relative growth turn out when `CN1C(=O)c2cc(NC(=O)c3cnccn3)ccc2OC[C@H]2O[C@H](CC(=O)NCC3CCCCC3)CC[C@H]21` was run?
The relative growth was inactive: 0.97.

With `C[C@@H]1CN([C@@H](C)CO)C(=O)c2cccc(NC(=O)Nc3ccccc3)c2O[C@@H]1CN(C)S(C)(=O)=O` as the compound, how does the relative growth read?
The relative growth was inactive: 0.996.

Which relative growth does the source give for `C[C@@H]1CCCCO[C@@H](CN(C)Cc2ccncc2)[C@H](C)CN([C@@H](C)CO)C(=O)c2cc(NC(=O)c3ccccc3)ccc2O1` here?
The relative growth was inactive: 1.

`C[C@@H]1CN([C@H](C)CO)C(=O)c2c(c3ccccc3n2C)-c2ccccc2CO[C@@H]1CN(C)Cc1cccc2c1OCCCO2` was tested. Which relative growth did it give?
The relative growth was inactive: 1.03.

How did the relative growth turn out when `C[C@@H]1CCCCO[C@@H](CN(C)C(=O)Nc2ccccc2)[C@@H](C)CN([C@@H](C)CO)C(=O)c2cc(NC(=O)c3ccccc3)ccc2O1` was run?
Its relative growth is inactive: 1.03.

With `COc1cccc(S(=O)(=O)Nc2ccc3c(c2)[C@H]2C[C@@H](CC(=O)NCc4ccccc4F)O[C@H](CO)[C@H]2O3)c1` as the compound, how does the relative growth read?
Its relative growth is inactive: 1.04.

With `CCC1CCC(N)CC1` (stereo unspecified) as the compound, how does the relative growth read?
The relative growth was inactive: 0.995.

With `COc1ccccc1CN1C(=O)c2ccccc2[C@](Cc2ccccc2I)(C(=O)NCC(F)(F)F)[C@@H]1c1ccc(CO)cc1` as the compound, how does the relative growth read?
The relative growth was inactive: 1.04.

With `COc1ccccc1C#Cc1cnc2c(c1)C(=O)N([C@H](C)CO)C[C@@H](C)[C@H](CN(C)S(=O)(=O)c1cn(C)cn1)O2` as the compound, how does the relative growth read?
The relative growth was inactive: 1.01.

With `O=C1O[C@H](c2ccccc2)[C@H](c2ccccc2)N2[C@H]1[C@@H](C(=O)N1CCN(c3ncccn3)CC1)[C@]1(C(=O)Nc3ccc(C#CC4(O)CCCCCC4)cc31)[C@H]2c1ccc(OCCO)cc1` as the compound, how does the relative growth read?
The relative growth was inactive: 1.12.

With `CC(C(=O)O)c1ccc(CC2CCCC2=O)cc1` (stereo unspecified) as the compound, how does the relative growth read?
Its relative growth is inactive: 1.14.

With `COC(=O)c1c2oc(c1C(=O)OC)C(=O)N[C@@H](Cc1ccccc1)Cn1cc(nn1)[C@@H](Cc1ccccc1)NC(=O)N[C@@H](CO)CC2` as the compound, how does the relative growth read?
Its relative growth is inactive: 0.981.

How did the relative growth turn out when `COc1ccc(CN(C)C[C@@H]2Oc3ccc(NS(=O)(=O)c4cn(C)cn4)cc3CC(=O)N([C@@H](C)CO)C[C@@H]2C)cc1` was run?
Its relative growth is inactive: 0.988.

Which relative growth does the source give for `C[C@H]1CN([C@@H](C)CO)C(=O)c2cc(C3=CCCC3)cnc2O[C@H]1CN(C)C(=O)c1ccc2c(c1)OCO2` here?
The relative growth was inactive: 1.01.

Which relative growth does the source give for `C[C@@H]1CN([C@H](C)CO)C(=O)Cc2cc(NC(=O)Nc3ccccc3)ccc2O[C@H]1CN(C)Cc1ccc(Oc2ccccc2)cc1` here?
Its relative growth is inactive: 1.02.

With `C[C@@H]1CN([C@H](C)CO)S(=O)(=O)c2ccc(-c3cccc(C#N)c3)cc2O[C@@H]1CN(C)C(=O)c1cccnc1` as the compound, how does the relative growth read?
Its relative growth is inactive: 1.01.

`C[C@H](CO)N1C[C@H](C)[C@@H](CN(C)S(=O)(=O)c2ccccc2C#N)OCc2cnnn2CCCC1=O` was tested. Which relative growth did it give?
Its relative growth is inactive: 0.98.

With `COc1ccc(NC(=O)Nc2ccc3c(c2)CC(=O)N([C@@H](C)CO)C[C@@H](C)[C@@H](CN(C)C(=O)Nc2ccc(C(F)(F)F)cc2)O3)cc1` as the compound, how does the relative growth read?
Its relative growth is inactive: 1.03.

`C[C@@H]1CN([C@H](C)CO)C(=O)c2cc(-c3cccc(C(=O)N(C)C)c3)cnc2O[C@@H]1CN(C)S(=O)(=O)c1ccc(F)cc1` was tested. Which relative growth did it give?
Its relative growth is inactive: 0.972.

Which relative growth does the source give for `CO[C@H]1CN(C)C(=O)c2cc(NC(=O)c3ccccc3)ccc2OC[C@@H](C)N(C(=O)CN(C)C)C[C@H]1C` here?
The relative growth was inactive: 0.977.

`c1cc([C@@H]2CNCCN2)[nH]n1` was tested. Which relative growth did it give?
The relative growth was inactive: 1.05.

For `CN([NH2+][O-])c1ccc(O)c(O)c1`, which relative growth is on record?
Its relative growth is inactive: 1.02.

Which relative growth does the source give for `CC(C)(C)c1cc2[nH]c(N)nc(=N)n2n1` here?
Its relative growth is inactive: 1.01.

Which relative growth does the source give for `COc1ccc2c3c([nH]c2c1)[C@H](CO)N(C[C@]13CN(C1)S(=O)(=O)C)C(=O)C1CCOCC1` here?
The relative growth was inactive: 1.

With `NCc1ccccc1CN1CCOCC1` as the compound, how does the relative growth read?
The relative growth was inactive: 1.01.

For `C[C@H](CO)N1C[C@H](C)[C@@H](CN(C)Cc2ccc(C(F)(F)F)cc2)OCCCC[C@H](C)Oc2ccc(NS(=O)(=O)c3cccs3)cc2C1=O`, which relative growth is on record?
The relative growth was inactive: 0.949.

`COc1ccc(COC[C@@]23Oc4ccccc4[C@@H](NC(=O)N2C)[C@H]3COC(=O)NCCCCCC(=O)NO)cc1` was tested. Which relative growth did it give?
Its relative growth is inactive: 0.996.

`C[C@@H]1CN([C@@H](C)CO)C(=O)c2cc(NS(=O)(=O)c3cn(C)cn3)ccc2O[C@H]1CN(C)S(=O)(=O)c1ccccc1` was tested. Which relative growth did it give?
The relative growth was inactive: 0.989.

With `C[C@@H]1CN([C@@H](C)CO)C(=O)c2cc(C#Cc3ccccc3)cnc2O[C@H]1CN(C)C(=O)CCN1CCCCC1` as the compound, how does the relative growth read?
Its relative growth is inactive: 1.04.

With `O=C(C[C@@H]1CC[C@@H]2[C@H](COC[C@@H](O)CN2C(=O)Nc2cccc(Cl)c2)O1)NCCCN1CCOCC1` as the compound, how does the relative growth read?
The relative growth was inactive: 0.934.

`CON=C(C(=O)NC1C(=O)N2C(C(=O)OC(C)OC(C)=O)=C(COC(N)=O)CSC12)c1ccco1` (stereo unspecified) was tested. Which relative growth did it give?
The relative growth was inactive: 0.881.

`C[C@@H]1CN([C@@H](C)CO)C(=O)c2cc(NC(=O)NC3CCCCC3)ccc2O[C@@H](C)CCCCO[C@H]1CN(C)S(=O)(=O)c1ccc(F)cc1` was tested. Which relative growth did it give?
The relative growth was inactive: 0.996.

How did the relative growth turn out when `C[C@H](CO)N1C[C@H](C)[C@@H](CN(C)C(=O)Nc2ccc3c(c2)OCO3)Oc2ccc(NC(=O)CCN3CCOCC3)cc2C1=O` was run?
Its relative growth is inactive: 1.

With `COc1ccc(NC(=O)N(C)C[C@@H]2Oc3ccc(NC(=O)CCCCCC(=O)Nc4ccccc4N)cc3CC(=O)N([C@H](C)CO)C[C@H]2C)cc1` as the compound, how does the relative growth read?
Its relative growth is inactive: 0.985.

How did the relative growth turn out when `COc1ccc(NC(=O)Nc2cccc3c2O[C@H](CN(C)C(=O)Nc2ccc(C(F)(F)F)cc2)[C@H](C)CN([C@@H](C)CO)C3=O)cc1` was run?
Its relative growth is inactive: 0.931.

With `C[C@H]1CCCCO[C@H](CN(C)C(=O)C2CCCCC2)[C@@H](C)CN([C@@H](C)CO)C(=O)c2cc(NC(=O)Nc3cccc4ccccc34)ccc2O1` as the compound, how does the relative growth read?
Its relative growth is inactive: 1.03.

For `CN1C(=O)c2cc(NC(=O)C3CCCC3)ccc2OC[C@H]2O[C@@H](CC(=O)NCCc3ccncc3)CC[C@H]21`, which relative growth is on record?
Its relative growth is inactive: 0.994.
